This note sets out measurements from ChEMBL document CHEMBL4888484, “Replenishing the malaria drug discovery pipeline: Screening and hit evaluation of the MMV Hit Generation Library 1 (HGL1) against asexual blood stage Plasmodium falciparum ,using a nano luciferase reporter read-out” (2022).

Among all 150,000 compounds or so, about 540 (0.36%) showed an effect of 50% or more. The list shows a part of the results.

One may read the % Inhibition as the drop in the measured response relative to a control, in per cent.

The assay deals with Plasmodium falciparum. As to the kind of experiment: Primary screen in NF54 nanoGlo assay, in single point, at 2uM, 72h; a lower Z score goes with more inhibition. Type of assay: functional, Erythrocyte. Conditions: timepoint 72 hour.
Consider `O=C1OCCN1CCCNC1(c2ccc(F)cc2)CCC1`, for which the “% Inhibition” value is given as -1% and the Z score is reported as 0.08.
Turning to `Cc1nc([C@@H]2CCCN2Cc2ccc(-c3ccn[nH]3)o2)cs1`, the “% Inhibition” value amounted to 27% and the Z score is -3.93.
In the case of `CC(C)CC(=O)N1CCN(C(=O)c2ccncc2)[C@H]2CS(=O)(=O)C[C@H]21`, the “% Inhibition” value is recorded as -23% and the Z score was determined as 2.33.
As to `Cc1nc2nc(-c3cccs3)nn2c(C)c1CC(=O)NCCO`, the “% Inhibition” value came to 5% and the Z score is reported as -0.56.
For `Cc1cc(C(=O)NC[C@H](C)N2CCc3ccccc32)cc(S(N)(=O)=O)c1C`, the “% Inhibition” value was determined as 4% and the Z score is reported as -0.51.
The like results for `O=C(O)C1(Oc2ccc(Cl)cc2)CCN(c2ncccn2)CC1` were, in that order, -6% and 1.19.
Taken in the same sequence, the figures for `Cc1cccc2c(=O)n(CCCC(=O)Nc3cc(C(F)(F)F)ccc3N3CCOCC3)cnc12` were -14% and 2.63.
Regarding `CC[C@@H](C(=O)NCCN1CCOCC1)N(c1ccc(C)cc1)S(C)(=O)=O`, the “% Inhibition” value is -7% and the Z score is 0.87.
For the compound `Cc1cc(NC(=O)C(=O)NCc2ccc(Cn3cc(Cl)cn3)cc2)no1`, the “% Inhibition” value is -5% and the Z score was found to be 0.68.
Taken in the same sequence, the figures for `O=C1CC[C@@H](C(=O)Nc2cccc(Cn3cnc4ccccc43)c2)N1` were -20% and 2.84.
With `Cc1ccc2nc(NC(=O)[C@@H](NC(=O)c3ccccc3F)C(C)C)sc2c1`, the “% Inhibition” value is reported as -7% and the Z score is listed as 0.91.
Consider `CN(C)c1noc(CN(Cc2cccs2)CC(F)(F)F)n1`, for which the “% Inhibition” value is listed as 17% and the Z score is recorded as -2.2.
On to `CN(C)c1ncc(NS(=O)(=O)Cc2ccccc2)cn1`, for which the “% Inhibition” value was -7% and the Z score is 1.27.
Turning to `O=C(O)[C@@H]1CC2(CCNCC2)CN1C(=O)c1scc2c1CCCC2`, the “% Inhibition” value is recorded as -15% and the Z score came out at 1.88.
Regarding `CCc1nnc(CNC(=O)c2csc(C)c2)o1`, the “% Inhibition” value is reported as 1% and the Z score is -0.18.
For `CCc1cc(CNC(=O)c2ccccc2NC(=O)[C@@H](C)CC)on1`, the “% Inhibition” value worked out at 1% and the Z score is -0.15.
The like results for `Cc1cc(=O)c(OCC(=O)Nc2ccc3c(c2)OCO3)c[nH]1` were, in that order, -12% and 1.55.
Regarding `CC(C)N(CCNC(=O)Nc1ccccn1)C1CC1`, the “% Inhibition” value is -4% and the Z score amounted to 0.59.
In the case of `O=C(CN1CCC[C@H]1c1ccncc1)Nc1ccc(Cl)cc1C(F)(F)F`, the “% Inhibition” value was -9% and the Z score is 0.81.
In the case of `Nc1c2c(-c3ccc(F)cc3)nc(NCc3cccc(F)c3)nc2nn1-c1ccccc1Cl`, the “% Inhibition” value is recorded as -22% and the Z score amounted to 2.78.
For `CCC[C@H](OC(=O)c1ccc(N(C)C)cc1)C(=O)Nc1cc(C)on1`, the “% Inhibition” value is recorded as -2% and the Z score is recorded as 0.21.
Turning to `CCN1CC(C(=O)NC2(C)CCOC2C)CC1=O` (centres undefined), the “% Inhibition” value is listed as -22% and the Z score worked out at 4.44.
Turning to `O=C(NC[C@@H]1C[C@@H](c2nnc[nH]2)C[C@@H]1O)c1ccsc1C(F)F`, the “% Inhibition” value is -1% and the Z score is listed as 0.27.
Consider `COC(=O)c1ccc(NC(=O)c2coc(NC(=O)c3cc(C)on3)n2)cc1`, for which the “% Inhibition” value worked out at 14% and the Z score is on record as -1.99.
Take `CCc1ccccc1CC(=O)Nc1ccc(C[C@@H]2NC(=O)NC2=O)cc1`: the “% Inhibition” value is -5% and the Z score is 0.61.
Take `O=C(NCc1ccccc1)N1CCCC[C@H]1c1nnc(-c2cnccn2)[nH]1`: the “% Inhibition” value was determined as 4% and the Z score was -0.74.
On to `C/C(=C\c1ccccc1)[C@@H]1CC(=O)Nc2n[nH]c(C3CCC3)c21`, for which the “% Inhibition” value is -10% and the Z score is listed as 1.56.
The like results for `Cc1cc(C)c(NC(=O)C2(N(C(=O)Cc3ccccc3)C3CC3)CCC3Cc4ccccc4CC3C2)c(C)c1` (centres undefined) were, in that order, -16% and 1.83.
The like results for `CN1C(=O)[C@@H]2CC[C@H]1CN(C(=O)Cc1ccncc1)C2` were, in that order, -2% and 0.27.
The like results for `CN1CCN(Cc2nnc(C3CCC3)n2C)c2cccnc21` were, in that order, -13% and 1.66.
For `Cn1c(NC(=O)C2CCCCC2)c(-c2cccc3ccccc23)c(=O)c2ccccc21`, the “% Inhibition” value is given as -6% and the Z score turned out to be 0.8.
As for `COc1ccc(N2CCC3(CC2)NCCc2[nH]cnc23)cc1`, the “% Inhibition” value is recorded as -30% and the Z score was 3.97.
Taken in the same sequence, the figures for `OCCN1CCN(c2nc3nonc3nc2NCc2cccs2)CC1` were -4% and 0.58.
As to `COc1cc(-c2nnsc2-c2nc3ccccc3[nH]2)cc(OC)c1OC`, the “% Inhibition” value is -12% and the Z score was found to be 2.13.
Turning to `Brc1ccccc1C1(CNc2ncccn2)CC1`, the “% Inhibition” value is on record as -5% and the Z score was found to be 0.81.
As for `CC(C)c1ccc(CN2C[C@@H](CN3CCN(C)CC3)[C@@H](CO)C2)cc1`, the “% Inhibition” value amounted to 8% and the Z score is listed as -1.26.
`CC(C)(CO)CN1CCC[C@H](N2CCc3ccccc3C2)C1`: the “% Inhibition” value is on record as -9% and the Z score is 1.13.
Taken in the same sequence, the figures for `CCC(=O)NCC(=O)N1CCCC2(CCCCCC2)C1` were -2% and 0.23.
As to `CN(C)c1nccc(CN2CCC[C@H]2C(=O)NCC2CCCCC2)n1`, the “% Inhibition” value is recorded as -15% and the Z score is recorded as 1.57.
In the case of `N#Cc1ccccc1Cn1nc(-c2ccco2)n(C2CC2)c1=O`, the “% Inhibition” value was -21% and the Z score stood at 2.38.
As for `CS(=O)(=O)N1CCC(C(=O)N[C@]2(CO)COc3ccccc3C2)CC1`, the “% Inhibition” value was -3% and the Z score is recorded as 0.41.
For the compound `Cc1cc(C(=O)N2CC[C@H](N)C2)c2cc(Br)ccc2n1`, the “% Inhibition” value worked out at 4% and the Z score is -0.57.
